Source: PubChem BioAssay AID588855 (National Center for Advancing Translational Sciences (NCATS), 2011)
Values joined by “and” are separate entries in the source; they are usually repeats but may differ in a detail not shown here. Equal entries are not always repeated. The campaign covered roughly 410,000 compounds. About 5,000 (1.2%) were called active. The inconclusive results got no clear call from the source; some entries with a clear call stand among them for comparison. The call rests on the fitted dose curve; in most records, active means well fitted inhibition curve with a large enough effect; inconclusive means small, poorly fitted or top-dose-only effect; inactive means no such curve, though single readings can be large or run the other way. Where the call is inconclusive, the potency comes from a doubtful curve fit.

Experiment: qHTS for Inhibitors of TGF-b; further: nearly all actives have a fitted effect of over 65% in size
Conditions: HepG2 CAGA-GFP TGF-b/SMAD3 reporter, GFP fluorescence, 18 h, TGF-beta stimulated, 500 pg/mL final; series mostly up to 46.1 µM
In short: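 Using HEPG2 CAGA-GFP reporter cells at 1000 cells/well, we pinned test compounds, stimulated with recombinant TGF-beta (500 pg/mL final) and measured total well GFP after 18 h.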
Potency means the concentration at half of the fitted maximal effect; tags describe the fitted curve by direction and shape.

SMILES | Potency
CCC(C)NC(=O)C1CCC(CNS(=O)(=O)c2ccc3c(c2)N(C(C)=O)CCO3)CC1 (configuration not stated) | inactive
CCOC(=O)CSc1nc(-c2ccc(C)cc2C)cc(-c2ccccc2)c1C#N | inactive
O=C1[C@H](Cc2ccccc2)NCCCC[C@H](c2ccc(Cl)cc2)N1Cc1ccccc1 | inconclusive: 35.5 µM [inhibitor, single point] and inconclusive: 11.2 µM [inhibitor, partial curve, poor fit]
O=C(COC(=O)CNS(=O)(=O)c1ccc2ccccc2c1)Nc1ccccc1Sc1ccccc1 | inconclusive: 35.5 µM [inhibitor, single point]
O=C(CN1CCN(c2ccc(O)cc2)CC1)Nc1ccc2c(c1)OCCCO2 | inconclusive: 10 µM [inhibitor, partial curve, poor fit]
CC(C)(C)C1CCC(CN2CCC(CN3C(=O)C(=O)NC[C@@H]3Cc3ccccc3)CC2)CC1 (some centres not stated) | inactive
CCCCC(=O)OC1=C(C(=O)c2ccccc2)N(CCC)S(=O)(=O)c2ccccc21 | inconclusive: 35.5 µM [inhibitor, single point]
O=C(COC(=O)c1ccccc1Cc1ccccc1)Nc1ccc(SC(F)F)cc1 | inconclusive: 35.5 µM [inhibitor, single point]
CCn1c(N2CCN(C(=S)NC)CC2)nc2ccccc21 | inactive
OCC[C@H]1C[C@H](O)[C@@H](O)[C@]2(OCCc3ccccc32)O1 | inactive
COc1ccc(NC(=O)CCCC2CCCCC2)cc1S(=O)(=O)N1CCCCC1 | inconclusive: 35.5 µM [inhibitor, single point]
Cc1nc(NC(=O)COC(=O)CCc2nc3ccccc3s2)c(Cl)cc1Cl | inconclusive: 15.8 µM [inhibitor, single point]
CCc1ccc(NC(=O)C2CCN(S(=O)(=O)c3ccc4c(c3)N(C(C)=O)CCO4)CC2)cc1 | inactive
CCOc1ccc(NC(=O)c2ccc3[nH]c(C)c(C)c3c2)cc1 | inconclusive: 0.224 µM [inhibitor, full curve]
O=C(Cn1c(SCc2ccccc2F)nc2ccncc21)Nc1ccccc1C(F)(F)F | inconclusive: 5.01 µM [inhibitor, full curve, poor fit]
Cc1ccc(NC2Sc3ccccc3NC2=O)cc1Cl (configuration not stated) | inconclusive: 35.5 µM [inhibitor, single point]
O=C(Cn1c(=O)c2cccn2c2cccnc21)NCc1cccc(F)c1 | inconclusive: 7.94 µM [inhibitor, partial curve, poor fit]
CCOC(=O)[C@H]1[C@H]2COc3ccccc3[C@@H]2N2C(=O)c3cc(Cl)ccc3NC(=O)[C@@]12C | inactive
CCOc1cc(C(=O)NCCc2sc(-c3ccc(F)cc3)nc2C)cc(OCC)c1OCC | inactive
C(=C\c1nc(-c2ccncc2)no1)/c1ccccc1 | inactive
Cc1csc(NC(=O)CCS(=O)(=O)c2ccc(Br)cc2)n1 | inconclusive: 35.5 µM [inhibitor, partial curve, poor fit]
O=C(NC(c1ccc2c(c1)OCO2)c1ccccn1)C1CCN(CCOc2ccc(Cl)cc2Cl)CC1 (configuration not stated) | inconclusive: 35.5 µM [inhibitor, single point]
C=CCNC(=S)NNC(=O)c1cccn(Cc2ccc(Cl)cc2Cl)c1=O | inactive

SMILES | Potency
Cc1nc2ccc(S(=O)(=O)N(CC(=O)Nc3ccc(F)cc3F)Cc3ccccc3)cc2s1 | inconclusive: 14.1 µM [inhibitor, single point]
Cc1nc2c(C)cccc2c2c1CCN2c1ccccc1F | inconclusive: 14.1 µM [inhibitor, single point]
N=C(N)SCP(=O)(c1ccccc1)c1ccccc1 | inactive
COc1ccc(C(=O)NCc2nnc(SCC(=O)Nc3cc(OC)ccc3OC)o2)cc1 | inactive
O=C(O)c1cc([N+](=O)[O-])c(Nc2cccc3ccccc23)c([N+](=O)[O-])c1 | inconclusive: 11.2 µM [inhibitor, partial curve]
Cc1nc(CS(=O)(=O)c2ccccn2)sc1C(=O)NNC(=O)c1ccc(Cl)cc1 | inactive
O=C1Oc2ccccc2C(=O)/C1=C/c1ccccc1O | inconclusive: 3.55 µM [inhibitor, partial curve, poor fit]
CCOC(=O)C1=CCN(S(=O)(=O)c2ccccc2Br)C1c1cccc(F)c1 (configuration not stated) | inconclusive: 35.5 µM [inhibitor, single point]
O=S(=O)(NCCSc1ccccc1)c1ccc(F)cc1 | inconclusive: 35.5 µM [inhibitor, single point]
O=C(N/N=C\c1cc(Br)ccc1O)c1ccc(S(=O)(=O)N2CCCCC2)cc1 | inconclusive: 0.355 µM [inhibitor, full curve, poor fit]
CCc1ccc(CN2CCC(n3nccc3NC(=O)c3ccccc3C)CC2)cc1 | inconclusive: 35.5 µM [inhibitor, single point]
CC1CC(NS(=O)(=O)c2cc3c4c(c2)CCN4C(=O)CC3)CC(C)(C)C1 (configuration not stated) | inconclusive: 28.2 µM [inhibitor, single point]
COc1ccc(CNC(=O)C(C)OC(=O)Cn2cnc3c2c(=O)n(C)c(=O)n3C)cc1 (configuration not stated) | inactive
Brc1ccc2nc(-c3c[nH]c4ccccc34)cn2c1 | inconclusive: 14.1 µM [inhibitor, single point]
CCc1ccc(C(CNc2nc(C(F)(F)F)nc3ccccc23)N(C)C)cc1 (configuration not stated) | active: 11.2 µM
O=C(CSCn1nnc2c(=O)[nH]c(Cc3ccc(F)cc3)nc21)Nc1cccc(C(F)(F)F)c1 | inconclusive: 17.8 µM [inhibitor, single point]
Cc1nn(C)c(Cl)c1C(=O)NCC(=O)O | inconclusive: 5.62 µM [inhibitor, partial curve, poor fit]
Cc1ccc(C2=NOC(=O)/C2=C\c2ccccc2)cc1 | inconclusive: 22.4 µM [inhibitor, single point]
Cc1ccc2c3c([nH]c2c1)C(=O)CC(C)(C)S3 | inconclusive: 6.31 µM [inhibitor, single point]
COc1ccc(CNC(=O)c2cc3c(=O)n(Cc4ccco4)ccc3nc2C)cc1 | inconclusive: 10 µM [inhibitor, partial curve, poor fit]
CN(CCOc1ccccc1)C(=O)c1cc(S(=O)(=O)N2CCOCC2)c(Cl)cc1Cl | inactive
C/C(CC(=O)Nc1cccc(Cl)c1Cl)=N\NC(=O)c1ccccc1C | inconclusive: 4.47 µM [inhibitor, single point]
Cc1cc(C)c2c(=O)n(CC(=O)NCCCN3CCN(c4ccccc4F)CC3)sc2n1 | inconclusive: 25.1 µM [inhibitor, single point]

SMILES | Potency
Cc1cc(C(=O)CN2C(=O)C(=O)N(Cc3ccccc3)C2=O)c(C)n1-c1ccccc1F | inactive
CC(=O)c1cccc(NC(=O)c2nc(-c3ccccc3)n(-c3ccccc3)n2)c1 | inactive
CCc1ccccc1NC(=O)CN1CCN(C(=O)CNC(=O)c2ccc(-c3ccccc3)cc2)CC1 | inconclusive: 14.1 µM [inhibitor, partial curve, poor fit]
Cc1nn(-c2ccc(Cl)c(Cl)c2)c(C)c1C(=O)O | inconclusive: 0.562 µM [inhibitor, full curve, poor fit]
O=C(C[n+]1cccc(Br)c1)c1ccc2ccccc2c1 | inactive
COc1cc2c(cc1OC)n(Cc1cccc(C(F)(F)F)c1)c(=O)n1nc(-c3ccccc3)nc21 | inactive
O=C(/C=C/c1ccc(Cl)cc1Cl)c1ccc[nH]1 | inconclusive: 35.5 µM [inhibitor, single point]
Cc1cc(C)c(NC(=O)CN(C)S(=O)(=O)c2ccc3c(c2)CCC(=O)N3)c(C)c1 | inconclusive: 25.1 µM [inhibitor, single point]
C#CCn1c(=NC(=O)c2sc3ccccc3c2Cl)sc2cc(S(N)(=O)=O)ccc21 | inconclusive: 6.31 µM [inhibitor, single point]
O=C(CNC(=S)N(Cc1ccccc1)Cc1ccccc1F)NCc1ccc(Cl)cc1 | active: 12.6 µM
OC(c1ccc(Cl)c(F)c1)c1ncc(-c2ccc(Oc3ccccc3)cc2)[nH]1 (configuration not stated) | inconclusive: 31.6 µM [inhibitor, single point]
O=C(Nc1ccc(F)cc1)c1csc2c1CCCCC2 | inconclusive: 15.8 µM [inhibitor, single point]
O=C(NCCc1ccccc1)c1nc(-c2ccc(Cl)cc2)n2c1CCCCC2 | inconclusive: 15.8 µM [inhibitor, partial curve, poor fit]
O=C(Oc1c(Br)cc(Br)c2cccnc12)N1CCCCC1 | inactive
O=C1CC(c2cccc([N+](=O)[O-])c2)c2cc3c(cc2N1)CCC3 (configuration not stated) | inconclusive: 11.2 µM [inhibitor, partial curve]
CC(C)(C)c1nc(C(C)(C)C)c(Br)c(=O)[nH]1 | inconclusive: 4.47 µM [inhibitor, single point]
O=c1[nH]c2cc3c(cc2cc1CN(Cc1ccco1)C(=S)NCCCN1CCOCC1)OCCO3 | inactive
Nc1ccc2nc(-c3cccs3)[nH]c2c1 | inactive
CCc1ccccc1NC(=S)NCC1CCN(c2ccc(OC)cc2)C1 (configuration not stated) | inconclusive: 10 µM [inhibitor, partial curve]
CCc1ccc(CN2CCCC(C(=O)Nc3ccccc3-c3ccc(OC)cc3)C2)o1 (configuration not stated) | inconclusive: 35.5 µM [inhibitor, single point]
COc1ccc(-c2nnc(SC(C(=O)c3c[nH]c4ccccc34)c3ccccc3)n2N)cc1OC (configuration not stated) | inconclusive: 22.4 µM [inhibitor, single point]
